According to the RNAGym collection of RNA variant scans (doi:10.1073/pnas.2313332121):
This sample is rich in variants without activity.

B1: TPR 5TU (parent)
chain: GGAUCUUCUCGAUCUAACAAAAAAGACAAAUCUGCCACAAAGCUUGAGAGCAUCUUCGGAUGCAGAGGCGGCAGCCUUCGGUGGCGCGAUAGCGCCAACGUUCUCAACUAUGACACGCAAAACGCGUGCUCCGUUGAAUGGAGUUUAUCAUG

Variants of: B1
Experiment: polymerase ribozyme fitness, log enrichment relative to wild type (log ratio); higher = more active; in vitro selection for triplet polymerase activity
Method in brief: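 Libraries of mutants in each subunit of a heterodimeric triplet polymerase ribozyme were generated by PCR and transcribed. In triplicate, each went through one in vitro selection round: annealing with biotinylated primer, partner subunit and triplets; frozen incubation at −7 °C; gel excision of extended constructs; streptavidin-bead capture; RT-PCR. Fitness, taken from Illumina sequencing of input and output libraries, is the logarithm of a genotype's enrichment over wild-type enrichment, averaged across replicates with inverse-variance weights. The logarithm is base 2, and genotypes needed ≥10 input reads and ≥1 read per output to be kept.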

Polymerase ribozyme fitness (log ratio), ≤ -4.2:
GGAUCUUCUCGAUCUAACAAAAAAGACAAAUCGGACACAAAGCUUGAGAGCAUCUUCGGAUGCAGAGGCGGCAGCCUUCGGUGGCGCGAUUGCGCCAACGUUCUCAAGUAUGACACGCAAAACGCGUGCUCCGUUGAAUGGAGAUUAUCAUG [U33G C35A A91U C108G U144A]
GGAUCUUCUCGAUCUAACAAAAAAGACAAAUCGGUCACAAAGCUUGAGAGUAUCUUCGGAUGCAGAGGAGACAGCCUUCGGUGGCGCGAUAGCGCCAACGUUGUCAACUAUGACACGCAAAACGCGUGCUCCGUUGAAUGGAGUUUAUCAUG [U33G C35U C51U C69A G71A C103G]
GGAUCUUCUCGAUCUAACAAAAAAGACAAAUCGGCCAUAAAGAUUGAGAGCAUCUUCGGAUGCAGAGGCGGCAGCCUUCGGUGGAGCGAUAGAGCCAACGUUCUCAACUUUGACACGCAAAACGCGUGCUCCGUUGAAUGGAGUUUAUCAUG [U33G C38U C43A C85A C93A A110U]
GGAUCUUCUCGAUCUAACAAAAAAGACAAAUCGGCCACAAAGCUUGAGAGCAUGUUCGGAUGCAGAGGCGGCAGCCUUCGGUGGCGCGAUAGAGCCAACGUUCGCAACUAUGACAUGCAAAACGCGUGCUCCGUUGAAUGUAGUUUAUCAUG [U33G C54G C93A U104G C116U G141U]
GGAUCUUCUCGAUCUAACAAAAAAGACAAAUCGGCCACAAAGCUUGAGAGCAUCUUCGGAUGCAGAGGUGGCAGCAUUCGGUGGCGCGAUACCGCCAACGUUCUCAACUAUGACACGCAAAACGCGUGCUCCGUUGAAUGGAGUUUAUCAUG [U33G C69U C76A G92C]
GGAUCUUCUCGAUCUAACAAAAAAGACAAAUCGGCCACAAAGCUUGAGAGCAUCUUCGGAUGCAGAGGCGGUAGCCUUCGGUGGCGCGAUAGCGACAACGUUCUCAACUAUGACACGCAAAACGCUUGCUCCGUUGGAUGGAGUUUAUCAUG [U33G C72U C95A G126U A137G]
GGAUCUUCUCGAUCUAACAAAAAAGACAAAUCGGCCACAAAGCUUGAGAGCAUCUUCGGAUGCAGAGGCGGUAGCCUUCCGUGGCGGGAUAGCGCCAACGUUCUCAAGUAUGACACGCAAAACGCGUUCUCCGUGGAAUGGAGUUUAUCAUG [U33G C72U G80C C87G C108G G128U U135G]
GGAUCUUCUCGAUCUAACAAAAAAGACAAAUCGGCCACAAAGCUUGAGAGCAUCUUCGGAUGCAGAGGCGGCAGCGUUCAGUGGCGCGAUAGCGCCAACGUUCUCAACUAUGACACGCAAAACGCGUGCUCCGUUGACUGGAGUUUAUCAUG [U33G C76G G80A A138C]
GGAUCUUCUCGAUCUAACAAAAAAGACAAAUCGGCCACAAAGCUUGAGAGCAUCUUCGGAUGCAGAGGCGGCAGCCUUCGGUGGCGCGAUAGGGGCAACGUUCUCAACUAUGACACGCAAAACGCGUGCUCCGUUGAAUGGAGAUUAUCAUG [U33G C93G C95G U144A]
GGAUCUUCUCGAUCUAACAAAAAAGACAAAUCGGCCACAAAUCUUGAGAGCAUCUUCGGAUGCAGAGGCAGCAGCCUUCGGUGGCGCCAUAGCUCCAACGUUCUCAACUAUGACACGCAAAACGCGUGCUCCGUUGAAUGGAGUUUAUCAUG [U33G G42U G70A G88C G94U]
GGAUCUUCUCGAUCUAACAAAAAAGACAAAUCGGCCACAAAUCUUGAGAGCAUCUUCGGAUGCAGAGGCGGCAGCCUUCGCUGGCGCGAUAGCGUCAACGUUCUCAACUAUGACACGCAAAACGCGUGCUCCGUUGAAACGAGUUUAUCAUG [U33G G42U G81C C95U U139A G140C]
GGAUCUUCUCGAUCUAACAAAAAAGACAAAUCGGCCACAAAGCUUGAAAGCAUCUUCGAAUGCAGAGGCGGCAGCCUUCGGUGACGCAAUAGCGCCAACGUUCUCAACUAUGACACGCAAAACGCGUGCUCCGUUGAAUGGAGUUUAUUAUG [U33G G48A G59A G84A G88A C149U]
GGAUCUUCUCGAUCUAACAAAAAAGACAAAUCGGCCACAAAGCUUGAGAACAUCUUCGGAUGGAGAGGCGGCAGCCUUCGGUGGCGCGAUAGCAGCAACGUUCUCAACUAUGACAUGCAAAACGCGUGCUCCGUUGAAUGGAGUUUAUCAUG [U33G G50A C63G G94A C95G C116U]
GGAUCUUCUCGAUCUAACAAAAAAGACAAAUCGGCCACAAAGCUUGAGAACAUCUUCGGAUGCAGAGGCGGCAGCCUUCGGUGGCGCGAUAGGGCCAACGUUCUCAACUAUGACACGCAAAACGCGUACUCCGUUGAAUGGAGUUUAUCAUG [U33G G50A C93G G128A]
GGAUCUUCUCGAUCUAACAAAAAAGACAAAUCGGCCACAAAGCUUGAGAGCAUCUUCGCAUGCAGAGGCGGCAGCCUUCGGUGGCGCGUUAGCGCCAACGUUCUCAACUAUGACACGCAAAACGCGUGCUCCGUUGAAUGGAGUUUAUCAUG [U33G G59C A89U]
GGAUCUUCUCGAUCUAACAAAAAAGACAAAUCGGCCACAAAGCUUGAGAGCAUCUUCGGAUGCAGAGGCGGCAUCCUUCGGUGGCGCGAUAGUGCCAACGUUCUCAUCUAUGACACGCACAACGCGUGCUCCGUUGAAUGGAGUUUAUCAUG [U33G G74U C93U A107U A120C]
GGAUCUUCUCGAUCUAACAAAAAAGACAAAUCGGCCACAAAGCUUGAGAGCAUCUUCGGAUGCAGAGGCGGCAGCCUUCUGUGACGCGAUAGCGCCAACGUUCUCAACUAUGACACGCAAAACGCGUGCUCCGUUGAAUGGCGUUUACCAGG [U33G G80U G84A A142C U148C U151G]
GGAUCUUCUCGAUCUAACAAAAAAGACAAAUCGGCCACAAAGCUUGAGAGCAUCUUCGGAUGCAGAGGCGGCAGCCUUCGGUAGCGCUAUAGCGCCAACGUUCUCAACUAUGACACGCAAAACGCGUGCUCCGUUCAAUGGAGUUUAUCAUG [U33G G83A G88U G136C]
GGAUCUUCUCGAUCUAACAAAAAAGACAAAUCGGCCACAAAGCUUGAGAGCAUCUUCGGAUGCAGAGGCGGCAGCCUUCGGUUGCGCGAUAGCGCCAACGUUCUCAAAUAGGACACGCAAAACGCGUGCUCCGUUGAAUGGAGUUUAUCAUG [U33G G83U C108A U111G]
